Data from PubChem BioAssay AID624418 (National Center for Advancing Translational Sciences (NCATS), 2012).
Among all 410,000 compounds or so, about 530 (0.13%) were called active. The inconclusive results got no clear call from the source; some entries with a clear call stand among them for comparison. Calls come from the whole dose curve; as a rule, active = well fitted inhibition curve with a large enough effect; inconclusive = small, poorly fitted or top-dose-only effect, or another doubt; inactive = no such curve, though single readings can be large or run the other way. Potencies beside an inconclusive call are fits to weak or partial responses and may not hold up.

Assay: qHTS of GLP-1 Receptor Inverse Agonists: Cytotox Screen
Conditions: HEK293 cAMP-luciferase reporter cells, luminescence, 24 h; series mostly up to 38.3 µM
Procedure, shortened: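 Here, cytotoxicity is scored as loss of luminescence. The MLSMR collection was tested on cells seeded in medium containing 10% Nu serum, with a 24 hr compound exposure preceded by 12 hours of culture.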
Potency is the fitted concentration of half-maximal effect.

Row | Compound | Potency
1 | CCn1cc(C(=O)N[C@H](C)c2ccccc2)c(=O)c2cc(F)c(N3CCN(C)CC3)cc21 | inconclusive: 28.2 µM [inhibitor, single point]
2 | N#C/C(=N\Nc1ccc(Cl)cc1)C(=O)c1ccsc1 | inconclusive: 28.2 µM [inhibitor, single point]
3 | Cc1cc(C)cc(NC(=O)Cn2nnc(C(=O)NCc3ccccc3Cl)c2N)c1 | inconclusive: 11.2 µM [inhibitor, single point]
4 | COc1cccc2nc3c(C(=O)NCCN(C)C)cccc3cc12 | inactive
5 | O=C1c2cccc3cccc(c23)C(=O)N1CC1CCN(CC(O)COc2ccc3ccccc3c2)CC1 (centres undefined) | inconclusive: 12.6 µM [inhibitor, partial curve]
6 | O=C(Nc1ccc2c(c1)C(=O)N(CC1CCCO1)C2=O)c1ccccc1Br (centres undefined) | inactive
7 | Cc1c(C=C(C#N)c2ccc([N+](=O)[O-])cc2)c(=O)n(-c2ccccc2)n1C | inconclusive: 1.26 µM [inhibitor, full curve, poor fit]
8 | COc1cc(/C=C2\SC(=S)N(Nc3ccccc3)C2=O)ccc1O | active: 10 µM
9 | CC1(C)NC(C)(C)/C(=C\c2cccs2)C(=O)C1=O | inconclusive: 20 µM [inhibitor, single point]
10 | CC1=NOC(=O)/C1=C\c1ccc(-c2ccc(Br)cc2)o1 | inconclusive: 28.2 µM [inhibitor, single point]
11 | O=S1(=O)C=C(Sc2nc3ccccc3s2)c2ccccc21 | inconclusive: 1 µM [inhibitor, full curve]
12 | COc1ccc(S(=O)(=O)N2CCC(n3cnc4cc(C(F)(F)F)ccc43)CC2)cc1 | inactive
13 | CC(C)CC(=O)NC(=S)Nc1ccccc1F | inactive
14 | O=C(NC(=S)NC1CCCCC1)c1ccccc1[N+](=O)[O-] | inconclusive: 12.6 µM [inhibitor, single point]
15 | CCC1=Nc2cc(C(=O)NCc3ccccc3Cl)ccc2Sc2ccc(C)cc21 | inconclusive: 1.26 µM [inhibitor, full curve]
16 | CN(C)CCN(Cc1ccccc1)C(c1cc2ccccc2o1)c1nnnn1C(C)(C)C (centres undefined) | inconclusive: 11.2 µM [inhibitor, single point]
17 | Cc1ccc(-c2nc(CN(CC3CCC3)CC3CCCO3)c(C)o2)s1 (centres undefined) | inconclusive: 31.6 µM [inhibitor, single point]
18 | Cc1ccc2nc(SC(C(=O)Nc3ccc(F)cc3)c3ccccc3)[nH]c2c1 (centres undefined) | inconclusive: 28.2 µM [inhibitor, single point]
19 | Cc1ccc(CNC(=O)c2cnc(N3CCCCC3)c3ccccc23)cc1 | inactive
20 | CCN1C(=O)c2cccc3c(NC(=O)c4ccc5c(c4)OCCO5)ccc1c23 | inconclusive: 28.2 µM [inhibitor, single point]
21 | O=C(Nc1ccccc1)/C(=C/c1cccnc1)NC(=O)c1ccccc1 | inactive
22 | NS(=O)(=O)c1ccc(CCNC(=O)COC(=O)C2CCC2)cc1 | inactive
23 | COc1ccc(C)cc1NC(=O)Cn1c(=O)nc(-c2ccccc2F)c2cc(Cl)ccc21 | inactive

Row | Compound | Potency
24 | CCOC(=O)Cn1c2ccccc2c2nc(C)sc21 | inconclusive: 22.4 µM [inhibitor, single point]
25 | O=C(Cc1ccc(Cl)cc1)NN1C(=O)c2ccccc2C1=O | inactive
26 | CCOc1ccc(/C(CCC(=O)O)=N/NC(=S)NCCc2ccccc2)cc1 | inconclusive: 14.1 µM [inhibitor, single point]
27 | Cc1nn(-c2ccc(F)cc2)c(Cl)c1/C=N/NC(=O)c1ccc(O)cc1 | inconclusive: 22.4 µM [inhibitor, single point]
28 | Cc1ccc(Nc2cc(C)c(O)c(C)c2)cc1 | inconclusive: 12.6 µM [inhibitor, single point]
29 | O=C(O)CN1C(=O)/C(=C/C=C/c2ccccc2)SC1=S | inactive
30 | CCCC[C@H](CN[C@@H](CNC)[C@H](C)CC)NCCC12CCC(CC1)C2 | inconclusive: 31.6 µM [inhibitor, single point]
31 | CCC(O)CNc1nc(-n2nc(C)cc2C)nc2sc3c(c12)CC(C)(C)OC3 (centres undefined) | inconclusive: 2.24 µM [inhibitor, full curve, poor fit]
32 | Cc1cccc(CNC(=O)C(=O)Nc2ccccc2C)c1 | inactive
33 | CCC1=NN(C(=O)C(=O)Nc2ccc(OC)cc2)C(O)(C(F)(F)F)C1 (centres undefined) | inconclusive: 7.08 µM [inhibitor, partial curve]
34 | CCN1C(=O)c2ccccc2Sc2ccc(NC(=O)Nc3ccccc3OC)cc21 | inconclusive: 11.2 µM [inhibitor, partial curve, poor fit]
35 | Cc1cc(C(=O)NNc2ccc(F)cc2)no1 | inconclusive: 11.2 µM [inhibitor, single point]
36 | C(=N\Nc1ccccn1)/c1ccc2c(c1)OCCO2 | inactive
37 | CSCCC(NC(=O)c1ccc(Cl)cc1Cl)C(=O)OCC(N)=O (centres undefined) | inactive
38 | CCOC(=O)c1cc2sccc2n1CC(=O)N1CCCc2ccccc21 | inconclusive: 20 µM [inhibitor, single point]
39 | Cc1ccccc1NC(=O)/C(C#N)=C\c1cn(CC(=O)O)c2ccccc12 | inconclusive: 4.47 µM [inhibitor, single point]
40 | Cc1ncc(CSc2nnnn2-c2ccccc2)c(N)n1 | inconclusive: 20 µM [inhibitor, partial curve, poor fit]
41 | OC(CNCCc1ccc(Cl)cc1Cl)COc1ccccc1 (centres undefined) | inconclusive: 25.1 µM [inhibitor, single point]
42 | c1ccc(CCNCCCOc2cccc3ccccc23)cc1 | inconclusive: 28.2 µM [inhibitor, single point]
43 | N#C/C(=C(/O)COC(=O)CCCNC(=O)c1ccc(Cl)cc1)c1nc2ccccc2[nH]1 | inconclusive: 10 µM [inhibitor, partial curve, poor fit]
44 | Cc1ccc(C2C3=C(NCCN=C3c3ccccc3)C(=O)N2c2ccccc2)cc1 (centres undefined) | inconclusive: 28.2 µM [inhibitor, single point]
45 | CCOc1ccccc1CNC(=O)c1ccc(-c2nc(CSc3ccc(C)cc3)c(C)o2)cc1 | inactive
46 | CN(C)c1cc(NC(=O)CN2CCCC2)c2ccccc2n1 | inconclusive: 12.6 µM [inhibitor, single point]

Row | Compound | Potency
47 | COc1ccc(Cl)cc1NC(=O)CSC1=Nc2ccccc2C2=NC(CC(=O)NC3CCCCC3)C(=O)N12 (centres undefined) | inactive
48 | O=C(/C=C/c1ccccc1)NC(NC(=S)Nc1ccc(Cl)cc1Cl)C(Cl)(Cl)Cl (centres undefined) | inconclusive: 22.4 µM [inhibitor, single point]
49 | COc1cc2sc3ccc(C#CC4(O)CCCCC4)cc3c(=O)c2cc1OC | inactive
50 | CCCCC(C)Sc1nc2c([nH]1)c(=S)n(C)c(=O)n2C (centres undefined) | inconclusive: 0.794 µM [inhibitor, full curve]
51 | CCOC(=O)[C@]12CCCC=C1N(Cc1ccc3c(c1)OCO3)C(=O)[C@H](CC(=O)NCC1CCCCC1)C2 | inactive
52 | C=CCN(c1ccccc1)S(=O)(=O)c1ccc2c(c1)NC(=O)C(C)C(=O)N2 (centres undefined) | inactive
53 | O=C(c1cc([N+](=O)[O-])ccc1N1CCOCC1)N1CCN(c2ccc([N+](=O)[O-])cc2)CC1 | inconclusive: 12.6 µM [inhibitor, single point]
54 | COc1ccc(OC)c(NC(=O)CSc2nnnn2-c2ccc3c(c2)OCO3)c1 | inconclusive: 28.2 µM [inhibitor, single point]
55 | CC/C(=C(\c1ccccc1)c1ccc(OCCN(C)C)cc1)c1ccccc1 | inconclusive: 28.2 µM [inhibitor, single point]
56 | CCOC(=O)/C(=C/c1ccc(OC(F)F)cc1)C1=Nn2c(nnc2-c2ccc(Cl)cc2)SC1 | inconclusive: 10 µM [inhibitor, partial curve]
57 | O=S(=O)(CC(CN1CCCCC1)N1CCCCC1)c1ccc2ccccc2c1 (centres undefined) | inconclusive: 5.01 µM [inhibitor, full curve, poor fit]
58 | NC(=O)c1ccc(NC(=O)C#Cc2ccccc2)cc1 | inconclusive: 10 µM [inhibitor, partial curve, poor fit]
59 | CCCn1c2ccccc2c2cnn(CC(=O)NCC3CCN(Cc4ccccc4C)CC3)c(=O)c21 | inactive
60 | O=[N+]([O-])c1ccccc1S(=O)NCc1c(Cl)cccc1Cl (centres undefined) | inactive
61 | CN(C)C(CNc1ncnc2sc3c(c12)CCCCC3)c1ccco1 (centres undefined) | inconclusive: 12.6 µM [inhibitor, single point]
62 | COc1ccc(-c2[nH]c(-c3ccc(C)cc3)nc2SCC(=O)Nc2nccs2)cc1 | inconclusive: 31.6 µM [inhibitor, single point]
63 | O=C(OCCNC(=O)c1ccc2ccccc2n1)c1cccnc1 | inconclusive: 3.98 µM [inhibitor, partial curve, poor fit]
64 | O=C(NCCc1ccccc1)c1ccc2nc3cc(Cl)ccc3c(=O)n2c1 | inactive
65 | Cc1cc(C)n(-c2nc(NC(C)C)nc(NC(C)C)n2)n1 | inconclusive: 1.78 µM [inhibitor, full curve, poor fit]
66 | Cc1nc2c(=O)n(C)c(=O)n(C)c2nc1Cl | inconclusive: 20 µM [inhibitor, single point]
67 | CCC1(C)CC(c2csc(N)n2)CCO1 (centres undefined) | inconclusive: 28.2 µM [inhibitor, single point]
68 | COc1ccc(OC)c(C2CC(=O)N3CN(c4cccc(Cl)c4)CSC3=C2C#N)c1 (centres undefined) | inconclusive: 3.16 µM [inhibitor, partial curve, poor fit]
69 | O=C(NCC1CCCO1)C1CCC(N2C(=O)c3ccccc3C2=O)CC1 (centres undefined) | inconclusive: 8.91 µM [inhibitor, partial curve, poor fit]
